Laboratory results as given in the RNAGym collection of RNA variant scans (doi:10.1073/pnas.2313332121).
Variants at the floor of the assay are shown more often than the library holds them.

B1: TPR 5TU (parent)
chain: GGAUCUUCUCGAUCUAACAAAAAAGACAAAUCUGCCACAAAGCUUGAGAGCAUCUUCGGAUGCAGAGGCGGCAGCCUUCGGUGGCGCGAUAGCGCCAACGUUCUCAACUAUGACACGCAAAACGCGUGCUCCGUUGAAUGGAGUUUAUCAUG

Variants of: B1
Assay: polymerase ribozyme fitness, log enrichment relative to wild type (log ratio); higher = more active; in vitro selection for triplet polymerase activity
In short: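 A heterodimeric triplet polymerase ribozyme had each of its subunits mutagenized by PCR into a library, which was transcribed. One round of in vitro selection, done in triplicate, annealed each library with a biotinylated primer, its partner subunit and triplets, then incubated it frozen at −7 °C before gel excision of extended constructs, streptavidin-bead capture and RT-PCR. Fitness is the logarithm of genotype enrichment relative to wild-type enrichment, based on Illumina sequencing of inputs and outputs and inverse-variance-weighted replicate averages. A base-2 logarithm is used, and genotypes were kept only with ≥10 input reads and ≥1 read per output.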

Point of comparison: A49G G117A, “polymerase ribozyme fitness (log ratio)” value -0.467. Against it:
- A49G C54U C76U G84A A122U U145G — lower, ≤ -4.2
- A49G C54U U109G — lower, -2.26
- A49G C57A A64C G83U G117C A122C — lower, ≤ -4.2
- A49G C57G C76A C96A — lower, ≤ -4.2
- A49G C57G U77G G94C C132U G136C U145G — lower, ≤ -4.2
- A49G C57U C99G C114U A120C G143U — lower, ≤ -4.2
- A49G C57U G143C U145A — lower, ≤ -4.2
- A49G C75A G83A A106U U144A — lower, ≤ -4.2
- A49G C75U C96G — lower, -2.68
- A49G C76A C93A C103G C105A U127C — lower, ≤ -4.2
- A49G C76A U102A U111C A120C U144A — lower, ≤ -4.2
- A49G C76U G84A C105G G124C U134A A147G — lower, ≤ -4.2
- A49G C79A A91G U139A — lower, ≤ -4.2
- A49G C79G G80U U90G A91U U146G — lower, ≤ -4.2
- A49G C85G A91U G126C — lower, ≤ -4.2
- A49G C85U U139A — lower, ≤ -4.2
- A49G C87A C93U U146C U151G — lower, ≤ -4.2
- A49G C87G U139A — lower, ≤ -4.2
- A49G C93A U134A U146G — lower, ≤ -4.2
- A49G C93G C108A A120G A142U — lower, ≤ -4.2
- A49G C93U C103G U135A G141A — lower, ≤ -4.2
- A49G C96A C103A A142C G152U — lower, ≤ -4.2
- A49G C149A — lower, ≤ -4.2
- A49G G50A C51U A52G G68A C99U C116A — lower, ≤ -4.2
- A49G G50A U53A U77G C79U G92U U109G A122U U134C U135C C149A A150U — lower, ≤ -4.2
- A49G G50A U56A C95U U101C U111G — lower, ≤ -4.2
- A49G G50C G71C G94C C105U U135G — lower, ≤ -4.2
- A49G G58C C76U A89G C99G C116U C129A — lower, ≤ -4.2
- A49G G59A C72A C85G — lower, ≤ -4.2
- A49G G59U G84C C99U — lower, ≤ -4.2
- A49G G62A G86C U111G G128U U135C G136C — lower, ≤ -4.2
- A49G G62U C63U C96A A122U — lower, -3.19
- A49G G67U C69A G70C G83A A89C C96G C105U A106G G128C — lower, ≤ -4.2
- A49G G67U U145G — lower, ≤ -4.2
- A49G G68A G94A G128A U130C U146G A150U — lower, ≤ -4.2
- A49G G68U G133A — lower, ≤ -4.2
- A49G G74A C76G U77G C85U G112U — lower, ≤ -4.2
- A49G G83U A89C U90G C105U — lower, ≤ -4.2
- A49G G88C U90A — lower, ≤ -4.2
- A49G G88U C96G U144C U148C U151G — lower, ≤ -4.2
- A49G G88U U145A — lower, ≤ -4.2
- A49G G94C G100U G126U U134A — lower, ≤ -4.2
- A49G U53A G58C C85A G86U A97U U102A C103U — lower, ≤ -4.2
- A49G U53A G59A A142U — lower, -2.64
- A49G U53A G86C C87U — lower, ≤ -4.2
- A49G U53C C114U — lower, -2.54
- A49G U55A G59A U78G C95A A97U A142C — lower, ≤ -4.2
- A49G U55C C75G C96A A138C — lower, ≤ -4.2
- A49G U56A A60G C76A A89G G92U — lower, ≤ -4.2
- A49G U56A A64C C108A C149A — lower, ≤ -4.2
- A49G U61G G62A A107C — lower, ≤ -4.2
- A49U — lower, -0.673
- A49U A52C A89G C95U A115U — lower, ≤ -4.2
- A49U A52C G83U A91U G136A — lower, ≤ -4.2
- A49U A52G C96U C99G — lower, ≤ -4.2
- A49U A60G U61A C93G — lower, ≤ -4.2
- A49U A60U C75G G84U A147G C149G — lower, ≤ -4.2
- A49U A64C C75U A91G A121U — lower, ≤ -4.2
- A49U A66G G84A C87U A98G — lower, ≤ -4.2
- A49U A73U C87U — lower, ≤ -4.2
- A49U A89U A91U — lower, ≤ -4.2
- A49U A91G — lower, ≤ -4.2
- A49U A107C — lower, ≤ -4.2
- A49U A142C — lower, -1.43
- A49U A150U — higher, -0.0151
- A49U C51A G58C G88U C95G A107G G124A — lower, ≤ -4.2
- A49U C51A U55G C95A — lower, -2.79
- A49U C54G C72A U82G A110U — lower, ≤ -4.2
- A49U C54G U55A G59A A60G U90G A106U G124C — lower, ≤ -4.2
- A49U C54U G88A C96U G141A C149U — lower, ≤ -4.2
- A49U C54U G88C U90A C114U A142C — lower, ≤ -4.2
- A49U C57A A73U G140U — lower, ≤ -4.2
- A49U C63U C76A A91G U102G U104G C131G — lower, ≤ -4.2
- A49U C69U U148C — lower, ≤ -4.2
- A49U C72U A91G U101G U109C U135G A150U — lower, ≤ -4.2
- A49U C75G C93U — lower, ≤ -4.2
- A49U C76A U77G C95G C96U C108U A142G — lower, ≤ -4.2
- A49U C85A A97G A107G A121G — lower, ≤ -4.2
- A49U C85G A115C — lower, -3.64
- A49U C87A — lower, ≤ -4.2
- A49U C87U C103U — lower, ≤ -4.2
- A49U C93A — lower, -3.3
